Reference: the supplement of paper PMC4967469

Experiments:
Experiment in all cases: Viability of human cancer cell lines after 72 h of drug (GDSC screen)
[1] = compound: c1ccc2c(CCNc3ccc(Nc4ccncc4)cc3)c[nH]c2c1 [JNJ-26854165]; settings: top dose 10 µM
Protocol: (§1)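 Human cancer cell lines in 384-well plates, medium with 10% serum, drug for 72 h over a 256-fold dose range (nine 2-fold or five 4-fold steps up to the top dose). Adherent lines were fixed and stained with the nucleic acid dye Syto60, suspension lines read with resazurin; signal relative to control wells, capped at 0 and 100%. One two-parameter sigmoid per drug and line, fitted in a mixed model over all curves with the slope shared within a line.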

[2] = compound: Cc1ccc(C(=O)N(CCCN)[C@@H](c2nc3cc(Cl)ccc3c(=O)n2Cc2ccccc2)C(C)C)cc1 [SB-715992]; settings: top dose 0.128 µM; top dose inferred
Protocol: as §1

[3] = compound: COC(=O)[C@H](CCSC)NC(=O)c1ccc(NC[C@@H](N)CS)cc1-c1ccccc1 [FTI-277]; settings: top dose 1.024 µM; top dose inferred
Protocol: as §1

[4] = compound: CCOc1nc(NC(=O)Cc2cc(OC)ccc2OC)cc(N)c1C#N [JNK Inhibitor VIII]; settings: top dose 10 µM; top dose inferred
Protocol: as §1

[5] = compound: O=C(/C=C/c1cccc(S(=O)(=O)Nc2ccccc2)c1)NO [Belinostat]; settings: top dose 20 µM; top dose inferred
Protocol: as §1

[6] = compound: COCC[n+]1c2c(n(Cc3cnccn3)c1C)C(=O)c1ccccc1C2=O [YM155]; settings: top dose 5.12 µM
Protocol: as §1

[7] = compound: CC1(C)CNc2cc(NC(=O)c3cccnc3NCc3ccncc3)ccc21 [AMG-706]; settings: top dose 2 µM; top dose inferred
Protocol: as §1

[8] = compound: C[C@]1(O)C[C@@H](c2nc(-c3ccc4ccc(-c5ccccc5)nc4c3)c3c(N)nccn32)C1 [OSI-906]; settings: top dose 2.56 µM; top dose inferred
Protocol: as §1

[9] = compound: CC(=O)O[C@@]12CO[C@@H]1C[C@H](O)[C@@]1(C)C(=O)[C@H](O)C3=C(C)[C@@H](OC(=O)[C@H](O)[C@@H](NC(=O)OC(C)(C)C)c4ccccc4)C[C@@](O)([C@@H](OC(=O)c4ccccc4)[C@H]21)C3(C)C [Docetaxel]; settings: top dose 0.0125 µM
Protocol: as §1

[10] = compound: Cc1sc2c(c1C)C(c1ccc(Cl)cc1)=N[C@@H](CC(=O)OC(C)(C)C)c1nnc(C)n1-2 [JQ1]
Protocol: as §1

[11] = compound: CN1CCN(c2ccc([N+](=O)[O-])c3no[n+]([O-])c23)CC1 [NSC-207895]; settings: top dose 20 µM; top dose inferred
Protocol: as §1

[12] = top dose 1 µM, screen: GDSC drug entry 1218, top dose inferred
[13] = top dose 2.56 µM, screen: GDSC drug entry 163

Row | Cell Line | AUC [1] | IC50 [1] | AUC [2] | IC50 [2] | AUC [3] | IC50 [3] | AUC [4] | IC50 [4] | AUC [5] | IC50 [5] | AUC [6] | IC50 [6] | AUC [7] | IC50 [7] | AUC [8] | IC50 [8] | AUC [9] | IC50 [9] | AUC [10, 12] | IC50 [10, 12] | AUC [10, 13] | IC50 [10, 13] | AUC [11] | IC50 [11]
1 | BICR78 (head and neck, adherent) | 0.844 | 8.83 µM | 0.914 | > 0.128 µM | 0.916 | > 1.02 µM | 0.94 | > 10 µM | 0.377 | 0.542 µM | 0.046 | < 0.02 µM | 0.921 | > 2 µM | 0.98 | > 2.56 µM | 0.501 | 0.000786 µM | 0.971 | > 1 µM | 0.613 | 0.344 µM | 0.949 | > 20 µM
2 | BT-20 (breast, adherent) | 0.949 | > 10 µM | 0.671 | 0.027 µM | 0.967 | > 1.02 µM | 0.975 | > 10 µM | 0.648 | 3.56 µM | 0.074 | < 0.02 µM | 0.984 | > 2 µM | 0.978 | > 2.56 µM | 0.719 | 0.00384 µM | 0.981 | > 1 µM | 0.918 | > 2.56 µM | 0.957 | > 20 µM
3 | BT-483 (breast, adherent) | 0.893 | > 10 µM | 0.977 | > 0.128 µM | 0.977 | > 1.02 µM | 0.977 | > 10 µM | 0.937 | > 20 µM | 0.273 | 0.0396 µM | 0.975 | > 2 µM | 0.955 | > 2.56 µM | 0.977 | > 0.0125 µM | 0.969 | > 1 µM | 0.845 | > 2.56 µM | 0.83 | > 20 µM
4 | C3A (liver, adherent) | 0.934 | > 10 µM | 0.987 | > 0.128 µM | 0.985 | > 1.02 µM | 0.988 | > 10 µM | 0.722 | 5.49 µM | 0.965 | > 5.12 µM | 0.978 | > 2 µM | 0.984 | > 2.56 µM | 0.934 | > 0.0125 µM | 0.984 | > 1 µM | 0.754 | 0.895 µM | 0.988 | > 20 µM
5 | C-33-A (cervix, adherent) | 0.887 | > 10 µM | 0.732 | 0.0367 µM | 0.974 | > 1.02 µM | 0.973 | > 10 µM | 0.218 | 0.186 µM | 0.029 | < 0.02 µM | 0.971 | > 2 µM | 0.967 | > 2.56 µM | 0.695 | 0.00276 µM | 0.861 | 0.854 µM | 0.787 | 1.12 µM | 0.586 | 2.15 µM
6 | CAL-27 (head and neck, adherent) | 0.942 | > 10 µM | 0.616 | 0.0168 µM | 0.979 | > 1.02 µM | 0.959 | > 10 µM | 0.341 | 0.447 µM | 0.107 | < 0.02 µM | 0.986 | > 2 µM | 0.985 | > 2.56 µM | 0.399 | 0.000411 µM | 0.949 | > 1 µM | 0.938 | > 2.56 µM | 0.942 | > 20 µM
7 | CAL-29 (bladder, adherent) | 0.829 | 6.87 µM | 0.959 | > 0.128 µM | 0.984 | > 1.02 µM | 0.961 | > 10 µM | 0.529 | 1.5 µM | 0.098 | < 0.02 µM | 0.973 | > 2 µM | 0.984 | > 2.56 µM | 0.543 | 0.00103 µM | 0.958 | > 1 µM | 0.636 | 0.393 µM | 0.934 | > 20 µM
8 | CAL-33 (head and neck, adherent) | 0.851 | 7.7 µM | 0.678 | 0.0251 µM | 0.973 | > 1.02 µM | 0.927 | > 10 µM | 0.554 | 1.75 µM | 0.085 | < 0.02 µM | 0.943 | > 2 µM | 0.981 | > 2.56 µM | 0.454 | 0.000585 µM | 0.966 | > 1 µM | 0.52 | 0.181 µM | 0.975 | > 20 µM
9 | CAL-39 (cervix, adherent) | 0.925 | > 10 µM | 0.926 | > 0.128 µM | 0.943 | > 1.02 µM | 0.986 | > 10 µM | 0.55 | 1.72 µM | 0.4 | 0.168 µM | 0.983 | > 2 µM | 0.857 | 2.21 µM | 0.66 | 0.00222 µM | 0.98 | > 1 µM | 0.702 | 0.609 µM | 0.931 | > 20 µM
10 | CAL-51 (breast, adherent) | 0.897 | 9.47 µM | 0.988 | > 0.128 µM | 0.989 | > 1.02 µM | 0.991 | > 10 µM | 0.914 | > 20 µM | 0.447 | 0.234 µM | 0.991 | > 2 µM | 0.986 | > 2.56 µM | 0.741 | 0.00341 µM | 0.978 | > 1 µM | 0.92 | > 2.56 µM | 0.982 | > 20 µM

A lower IC50 marks a more sensitive line; fits outside the tested doses are given as limits. AUC, from the same fit, is the share of area under the viability curve across the 256-fold dose range; values near 1 show little effect. For part of these data: Where the top dose is marked as inferred, it is not printed in the source and was worked back from the curve model. For part of these data: An entry number marks a drug with two screens in the source, which often give different values.
